Test results from the antibiotic and cytotoxicity screens of Wong et al. (2023).
The list shows a part of the results.

Experiments:
HSkMC = human skeletal muscle cells; test: cytotoxicity call (relative viability < 0.9); details: 10 µM
HepG2 = test: cytotoxicity call (relative viability < 0.9); details: 10 µM
S. aureus RN4220 = test: growth inhibition call (relative growth <= 0.2); details: 50 µM

SMILES	cytotoxicity call (HSkMC)	cytotoxicity call (HepG2)	growth inhibition call (S. aureus RN4220)
O=C(O)/C=C/C(=O)NCc1ccccc1	inactive	inactive	inactive
CNC[C@@H]1OCCCC[C@@H](C)Oc2ccc(NS(=O)(=O)c3cn(C)cn3)cc2C(=O)N([C@@H](C)CO)C[C@@H]1C	inactive	inactive	inactive
Cc1ccc(/C=N/Nc2cnnc(=O)[nH]2)o1	inactive	inactive	inactive
C[C@@H]1CCCCO[C@@H](CN(C)Cc2ccc(C(F)(F)F)cc2)[C@H](C)CN([C@@H](C)CO)C(=O)c2cc(NC(=O)C3CCCCC3)ccc2O1	inactive	inactive	inactive
CN(CC(=O)NC1CCCC1)S(C)(=O)=O	inactive	inactive	inactive
CC1=C(C#N)C(=O)NC(=O)C1=NNc1ccc(S(N)(=O)=O)cc1	inactive	inactive	inactive
C[C@@H]1CCCCO[C@H](CN(C)C(=O)CCC(F)(F)F)[C@H](C)CN([C@H](C)CO)C(=O)c2cc(NC(=O)C3CCCCC3)ccc2O1	inactive	inactive	inactive
C[C@@H]1CN([C@H](C)CO)C(=O)c2cc(C#Cc3cccnc3)cnc2O[C@@H]1CN(C)S(C)(=O)=O	inactive	inactive	inactive
C[C@@H]1CCCCO[C@@H](CN(C)CC2CC2)[C@H](C)CN([C@H](C)CO)C(=O)c2cc(NC(=O)Cc3ccccc3)ccc2O1	inactive	inactive	inactive
NS(=O)(=O)OCCCCCCCOS(N)(=O)=O	inactive	inactive	inactive
Cc1ccc(S[C@]2(C(=O)NCCN3CCOCC3)CC(=O)N(Cc3cc(C(F)(F)F)cc(C(F)(F)F)c3)[C@@H]2c2ccc(CO)cc2)cc1	inactive	inactive	inactive
C[C@H]1CN([C@@H](C)CO)S(=O)(=O)c2ccc(Br)cc2O[C@H]1CN(C)S(=O)(=O)c1ccccc1F	inactive	inactive	inactive
C=C(C)[C@H]1CC=C(C)CC1	inactive	inactive	inactive
COc1ccc(NC(=O)N(C)C[C@H]2OCCCC[C@H](C)Oc3ccc(NS(=O)(=O)c4ccc(F)cc4)cc3C(=O)N([C@@H](C)CO)C[C@H]2C)cc1	inactive	inactive	inactive
O=C(C[C@@H]1CC[C@@H]2[C@H](COC[C@@H](O)CN2S(=O)(=O)c2cccc(F)c2)O1)NCCCN1CCOCC1	inactive	inactive	inactive
CC1(C)CCCC2(C)C1CCC1(C)OC(=O)CC12 (stereo not given)	inactive	inactive	inactive
C[C@@H]1CCCCO[C@H](CN(C)C(=O)Nc2ccc3c(c2)OCO3)[C@@H](C)CN([C@H](C)CO)C(=O)c2cc(NC(=O)C3CCCCC3)ccc2O1	inactive	inactive	inactive
C[C@H]1CN([C@@H](C)CO)C(=O)c2c(c3ccccc3n2C)-c2ccccc2CO[C@H]1CN(C)S(=O)(=O)c1ccc(Cl)cc1	inactive	active	inactive
C[C@H]1CN([C@@H](C)CO)C(=O)Cc2cc(NC(=O)Cc3cn(C)c4ccccc34)ccc2O[C@@H]1CN(C)C	inactive	inactive	inactive
C[C@H](CO)N1C[C@H](C)[C@@H](CN(C)S(C)(=O)=O)Oc2ccc(NS(=O)(=O)c3cn(C)cn3)cc2C1=O	inactive	inactive	inactive
C[C@H]1CCCCO[C@H](CN(C)Cc2ccc3c(c2)OCO3)[C@@H](C)CN([C@@H](C)CO)C(=O)c2cc(NS(=O)(=O)c3cccs3)ccc2O1	inactive	inactive	inactive
C[C@@H]1CN([C@H](C)CO)C(=O)c2cc(NS(=O)(=O)c3ccc(Cl)cc3)ccc2O[C@@H](C)CCCCO[C@@H]1CN(C)Cc1ccncc1	inactive	inactive	inactive
O=C(C[C@@H]1CC[C@@H]2[C@H](COC[C@H](O)CN2C(=O)Nc2ccc(F)cc2)O1)NCCCN1CCOCC1	inactive	inactive	inactive
COc1ccc(NC(=O)N(C)C[C@H]2OCCCC[C@@H](C)Oc3ccc(NS(=O)(=O)c4cccs4)cc3C(=O)N([C@H](C)CO)C[C@@H]2C)cc1	inactive	inactive	inactive
O=C(C[C@H]1C=C[C@H](NC(=O)C2CCC2)[C@H](CO)O1)NCCCN1CCOCC1	inactive	inactive	inactive
COc1ccc(NC(=O)Nc2ccc3c(c2)C(=O)N([C@H](C)CO)C[C@H](C)[C@@H](CN(C)C(=O)Nc2ccc(OC)cc2)OCCCC[C@@H](C)O3)cc1	inactive	inactive	inactive
CC(C)NC(=O)N(C)C[C@H]1Oc2c(NC(=O)Cn3cnnn3)cccc2C(=O)N([C@H](C)CO)C[C@@H]1C	inactive	inactive	inactive
COc1ccc(S(=O)(=O)N(C)C[C@@H]2OCCCC[C@H](C)Oc3ccc(NS(=O)(=O)c4ccc(Cl)cc4)cc3C(=O)N([C@@H](C)CO)C[C@H]2C)cc1	inactive	inactive	inactive

SMILES	cytotoxicity call (HSkMC)	cytotoxicity call (HepG2)	growth inhibition call (S. aureus RN4220)
C[C@H](CO)N1C[C@H](C)[C@@H](CN(C)C(=O)NC2CCCC2)Oc2cc(-c3cccnc3)ccc2S1(=O)=O	inactive	inactive	inactive
C[C@@H]1CCCCO[C@@H](CN(C)C)[C@H](C)CN([C@@H](C)CO)C(=O)c2cc(NS(=O)(=O)c3cn(C)cn3)ccc2O1	inactive	inactive	inactive
NC(=O)Cc1ccc(O)cc1	inactive	inactive	inactive
Cc1sc2[nH]cnc(=S)c2c1C	inactive	inactive	inactive
CN(C)CC(=O)N1[C@@H]2c3cccc(=O)n3C[C@H]1[C@H](CO)[C@H]2C(=O)NCc1ccccc1	inactive	inactive	inactive
C[C@@H]1CN([C@@H](C)CO)C(=O)Cc2cc(NS(C)(=O)=O)ccc2O[C@H]1CN(C)Cc1ccc(C(=O)O)cc1	inactive	inactive	inactive
COc1ccc(S(=O)(=O)N(C)C[C@H]2Oc3c(NC(=O)Nc4cccc5ccccc45)cccc3C(=O)N([C@@H](C)CO)C[C@H]2C)cc1	inactive	inactive	inactive
Cc1noc(C)c1NC(=O)N(C)C[C@@H]1OCCCC[C@H](C)Oc2ccc(NC(=O)Cc3ccccc3)cc2C(=O)N([C@@H](C)CO)C[C@@H]1C	inactive	inactive	inactive
C[C@@H]1CN([C@@H](C)CO)S(=O)(=O)c2ccc(C#CC(C)(C)O)cc2O[C@@H]1CN(C)Cc1ccncc1	inactive	inactive	inactive
C[C@H](CO)N1C[C@H](C)[C@@H](CN(C)C(=O)C2CCCCC2)Oc2cc(C#CC3CC3)ccc2S1(=O)=O	inactive	inactive	inactive
COc1ccc(N(C(=O)CCl)[C@@H](C(=O)NCCc2ccccc2)c2ccc(Cl)s2)cc1Cl	active	active	inactive
CC(C)NC(=O)Nc1ccc2c(c1)C(=O)N([C@@H](C)CO)C[C@@H](C)[C@@H](CN(C)Cc1ccc(C(F)(F)F)cc1)OCCCC[C@@H](C)O2	inactive	active	inactive
C[C@@H]1CN([C@H](C)CO)C(=O)c2cccc(NC(=O)CCCCCC(=O)Nc3ccccc3N)c2O[C@H]1CN(C)CC1CCCCC1	inactive	active	inactive
COc1cccc(CNC(=O)c2cc3c(c(-c4cccc(-c5cccc(C#N)c5)c4)n2)[C@@H](CCO)N([S@](=O)C(C)(C)C)C3)c1	inactive	inactive	inactive
C[C@@H]1CN([C@@H](C)CO)S(=O)(=O)c2ccc(C#CC3(O)CCCC3)cc2O[C@H]1CN(C)C(=O)Nc1ccccc1	inactive	inactive	inactive
COc1ccc(CN(C)C[C@@H]2OCCCC[C@H](C)Oc3ccc(NC(=O)C4CCCCC4)cc3C(=O)N([C@@H](C)CO)C[C@H]2C)cc1	inactive	active	inactive
C[C@@H]1CN([C@H](C)CO)S(=O)(=O)c2ccc(C#C[C@@H](C)O)cc2O[C@@H]1CN(C)C(=O)Cc1ccccn1	inactive	inactive	inactive
Cc1ccc(S(=O)(=O)N2C[C@@H](O)COC[C@H]3O[C@@H](CC(=O)NCCCN(C)C)CC[C@@H]32)cc1	inactive	inactive	inactive
Cc1noc(C)c1S(=O)(=O)Nc1ccc2c(c1)C(=O)N([C@@H](C)CO)C[C@H](C)[C@@H](CN(C)C(=O)Nc1ccc(F)cc1)OCCCC[C@@H](C)O2	inactive	inactive	inactive
CC(C)NC(=O)Nc1ccc2c(c1)C(=O)N([C@@H](C)CO)C[C@H](C)[C@H](CN(C)Cc1ccc(C(F)(F)F)cc1)OCCCC[C@@H](C)O2	inactive	active	inactive
C[C@@H]1CN([C@H](C)CO)C(=O)Cc2cc(NC(=O)C3CC3)ccc2O[C@H]1CN(C)S(=O)(=O)c1ccccc1	inactive	inactive	inactive
CN(C)C(=O)c1cccc(-c2cccc(-c3nc(C(=O)NC4CCCCC4)cc4c3[C@@H](CCO)N([S@@](=O)C(C)(C)C)C4)c2)c1	active	inactive	inactive
Cc1ccc(S(=O)(=O)N(C)C[C@@H]2Oc3ccc(NS(=O)(=O)c4ccc(F)cc4)cc3CC(=O)N([C@@H](C)CO)C[C@H]2C)cc1	inactive	inactive	inactive
CCS(=O)(=O)Nc1ccc2c(c1)C(=O)N(C)C[C@H](OC)[C@H](C)CN(C(=O)c1ccc3c(c1)OCO3)[C@@H](C)CO2	inactive	inactive	inactive
C[C@H](CO)N1C[C@H](C)[C@H](CN(C)S(=O)(=O)c2cccs2)Oc2ccc(NS(=O)(=O)c3cccs3)cc2C1=O	inactive	inactive	inactive
C[C@@H]1CCCCO[C@@H](CN(C)Cc2ccc(C(F)(F)F)cc2)[C@H](C)CN([C@@H](C)CO)C(=O)c2cc(NS(C)(=O)=O)ccc2O1	inactive	inactive	inactive
C[C@@H]1CCCCO[C@@H](CN(C)C(=O)Nc2ccc(C(F)(F)F)cc2)[C@H](C)CN([C@H](C)CO)C(=O)c2cc(NS(=O)(=O)c3ccccc3)ccc2O1	inactive	active	inactive
